Test results reported in PubChem BioAssay AID1346428 (National Center for Advancing Translational Sciences (NCATS), 2018).
About 1,200 (2.5%) of roughly 48,000 compounds were called active. Another 2% or so got no clear call; they are omitted.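 Rule for the calls: active = activation of at least 60% and not above a set upper limit (about 1 call in 100 departs from these limits); inconclusive = activation of 40% to 60%, or above that upper limit; inactive = activation under 40%.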 This is one part of the list.

These compounds were tested against Probable G-protein coupled receptor 32 (Homo sapiens) (UniProt O75388) (assay: qHTS for Agonists of Human Resolvin D1 Receptor DRV1). Settings: CHO-K1 GPR32 beta-arrestin PathHunter luminescence, 90 min; at 76.9 µM; hits give high values; zero percent set by DMSO-only wells.
Procedure, shortened: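 PathHunter enzyme-fragment complementation, CHO-K1 GPR32 stable line; 2,500 cells/well, overnight attach; cpd 90 min 37 °C 5% CO2; detection reagent 1 h RT; chemiluminescence. DMSO = EC0.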

UniProt O75388, sequence (O75388 whole entry, looked up, the tested form may be a part): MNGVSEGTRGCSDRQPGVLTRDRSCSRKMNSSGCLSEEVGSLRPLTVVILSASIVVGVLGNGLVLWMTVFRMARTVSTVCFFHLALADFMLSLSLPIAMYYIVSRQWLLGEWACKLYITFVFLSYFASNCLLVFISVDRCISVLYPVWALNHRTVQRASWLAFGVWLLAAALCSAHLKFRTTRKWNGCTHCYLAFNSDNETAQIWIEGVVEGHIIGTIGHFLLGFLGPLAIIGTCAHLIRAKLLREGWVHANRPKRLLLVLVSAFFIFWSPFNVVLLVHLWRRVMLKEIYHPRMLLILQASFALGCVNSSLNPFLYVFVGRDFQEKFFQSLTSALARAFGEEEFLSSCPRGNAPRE

activation, inactive:
COc1cc2c(cc1OC)n(CC(=O)c1ccc(C)cc1)c(=O)n1nc(CCn3nc(C)cc3C)nc21 -2.62%
CCc1ccc(NC(=O)c2sc3nc(C)cc(C)c3c2NC(=O)c2ccccc2OC)cc1 14.3%
CCN(Cc1ccccc1)C(=O)CCS(=O)(=O)c1ccc2c(c1)CCN2C(C)=O 8.67%
O=C(NC1CCCCC1)c1ccc2c(c1)N(Cc1cccc(Cl)c1)C(=O)c1ccccc1S2=O (stereo not given) -16.3%
COc1ccc(CN2CCN(S(=O)(=O)c3ccc(NC(C)=O)cc3)CC2)c(OC)c1OC -4.52%
CCc1ccc(-c2nc(CSCC(=O)NCc3ccc(C)cc3)c(C)o2)cc1 -26.2%
O=C(NCc1ccco1)c1ccc2c(c1)N(Cc1cccc(Cl)c1)C(=O)c1ccccc1S2=O (stereo not given) -19.4%
CCOc1ccc(CCNC(=O)Cn2c(C)c3cnn(-c4ccccc4)c(=O)c3c2C)cc1 9.46%
O=C(Cn1ncc2c3ccccc3n(Cc3cccc(Cl)c3)c2c1=O)N1CCCCCC1 -16.5%
CCc1c(CN2CCN(c3cccc(C)c3)C(C)C2)csc1C (stereo not given) 10.6%
COc1cc(OC)c(NC(=O)CSc2cc(=O)n(C)c3ccc(Cl)cc23)cc1Cl 12%
CCc1ccc(NC(=O)CC2C(=O)N(c3ccc(Cl)cc3)C(=O)N2C2CCCC2)cc1 (stereo not given) -29.6%
Cc1ccccc1Cn1c2ccccc2c2cnn(CC(=O)NCCc3ccc(Cl)cc3)c(=O)c21 -12%
Cc1cccc(OCCn2c(-c3ccc(Cl)cc3)nc3ccccc3c2=O)c1C -4.72%
CC(=O)c1cccc(Nc2nc(-c3ccccc3Cl)nc3ccccc23)c1 14.9%
CC(C)c1cccc(C(C)C)c1NS(=O)(=O)c1cccs1 16.7%
CC(CCCc1ccccc1)NC(=O)c1nn(-c2ccc(Cl)cc2)nc1CO (stereo not given) -14.4%
Cc1ccc2[nH]c3c(=O)n(CC(=O)N4CCCC(C)C4)ncc3c2c1 (stereo not given) 32.3%
O=C(NC1CC(=O)N(c2ccccc2)C1)c1ccc(S(=O)(=O)N2CCCC2)cc1 (stereo not given) -7.54%
Nc1ncc(S(=O)(=O)NCc2ccc(F)cc2)cn1 -13.6%
COc1ccc(C(=O)CCC(=O)Nc2cc(C)ccc2C)cc1 -7.24%
COc1ccc(CNC(=O)C2CCN(S(=O)(=O)c3ccc4c(ccn4C)c3)CC2)cc1 1.01%
Cc1cc(C)c2c(-n3cccc3)c(C(=O)NCC(C)c3ccccc3)sc2n1 (stereo not given) -1.55%
COc1ccc(-c2nc3ccccc3s2)cc1NC(C)=O -2.72%
CCOC(=O)c1c(C)[nH]c(C)c1S(=O)(=O)NCC(=O)N1CCN(c2ccccc2F)CC1 9.21%
Cc1cccc2sc(N(Cc3cccnc3)C(=O)COc3ccccc3)nc12 -30.2%
CCOc1ccccc1NC(=O)c1cc2c(=O)[nH]c3ccccc3c2s1 -10%
COc1ccc(C(=O)Nc2ccccc2C(=O)OCc2cc(=O)n3nc(C4CC4)sc3n2)cc1 4.13%
CCOc1ccc(NC(=O)Cn2c(=O)cc(C)c3c(C)nn(-c4ccc(CC)cc4)c32)cc1 -2.63%
CCOc1ccccc1NC(=O)C1CCCN(S(=O)(=O)c2cn(C)cn2)C1 (stereo not given) -13.7%
CCOC(=O)c1c(C)oc2nc(C)nc(Nc3cc(C)ccc3OC)c12 3.87%
CCOC(=O)N1CCc2c(sc3c2c(=O)n(-c2ccc(CC)cc2)c(=O)n3Cc2cc(C)ccc2C)C1 -0.181%
CCc1nnc(NC(=O)CSc2nc3c([nH]c4ccccc43)c(=O)n2-c2ccc(OC)cc2)s1 -14.1%
CC(C)c1ccc(/C=C(\C#N)c2nc(-c3ccc(O)cc3)cs2)cc1 -35.1%
O=C(C1CCCCC1)N(Cc1cccnc1)c1nc2ccc(F)cc2s1 -23.6%
CCc1cccc(NC(=O)COc2cc(=O)n(CC)c3ccccc23)c1 11.2%
Cn1ccc2cc(S(=O)(=O)N3CCN(C(=O)Nc4ccccc4F)CC3)ccc21 -4.12%
CCOC(=O)c1c(Nc2cccc(C)c2)nnc(-c2ccccc2)c1-c1ccccc1 2.72%
Nc1nc(N)c(S(=O)(=O)c2ccccc2)c(Nc2ccc(F)cc2)n1 32.2%
CCOC(=O)c1cccc(NC(=O)c2sc3nc[nH]c(=O)c3c2C)c1 -10.4%
CCc1ccc2occ(CC(=O)N(Cc3ccc(N(C)C)cc3)C3CCS(=O)(=O)C3)c2c1 (stereo not given) -22.1%
COc1cc(-c2ccno2)ccc1S(=O)(=O)N1CCN(c2ccc(F)cc2)CC1 -0.491%
CCCc1cc(=O)[nH]c(Nc2ccc(O)cc2C)n1 0.479%
O=C(CSc1nc2ccccc2nc1Cc1ccccc1)N1CCCc2ccccc21 -9.03%
CCOC(N)=O -8.56%
Cc1cccc(N(C)S(=O)(=O)c2nnc(NC(=O)C3CCCCC3)s2)c1 1.18%
O=C(O)C1CN(CCCP(=O)(O)O)CCN1 (stereo not given) 2.7%
CCOC(=O)N1CCC(NC(=O)c2ccc3c(c2)N(Cc2ccc(Cl)cc2)C(=O)c2ccccc2S3=O)CC1 (stereo not given) 5.49%
COC(=O)c1cc(OC)c(OC)cc1NC(=O)c1ccc2c(c1)CCN2S(=O)(=O)c1ccccc1 -4.05%
Fc1ccc(-n2ncc3c(N4CCN(Cc5ccccc5)CC4)ncnc32)cc1 -3.85%
CCOc1ccccc1CN1CCc2nc(Nc3ccccc3)ncc2C1 -25%
Fc1ccccc1C1=NC(c2ccc(C(F)(F)F)cc2)=Nc2ccccc2N1 4.64%
COc1cc(CN2CCN(S(=O)(=O)c3ccc(F)cc3)CC2)cc(OC)c1OC -9.64%
O=C(NCc1ccccn1)c1nn(-c2ccccc2F)nc1CO -11.2%
COc1ccc(CCN2C(=O)CN(C3CCCCCC3)C(=O)C2c2ccc(C)cc2)cc1OC (stereo not given) -16.1%
COc1cccc(CNC(=O)CCNS(=O)(=O)c2ccc3c(c2)CCCC(=O)N3)c1 10.5%
CCc1ccc(CNC(=O)c2ccc3c(c2)nc2n3CCCCC2)cc1 -10.1%
COc1ccc(OC)c(CCNC(=O)CN2C(=O)COc3ccc(S(=O)(=O)N4CCCCCC4)cc32)c1 -0.0266%
COc1cccc(CNC(=O)CSc2n[nH]c(-c3ccccc3Cl)n2)c1 -9.14%
Cc1ccc(C)c(Cn2cnc3ccccc3c2=O)c1 15.2%
CCc1cccc(NC(=O)CN2c3ccccc3S(=O)(=O)c3ccccc32)c1 -4.69%
CC(=O)N1c2ccc(S(=O)(=O)NCCC(=O)Nc3ccc(C)cc3Br)cc2CC1C (stereo not given) 39.4%
O=C(CSc1ccc2nnc(CCNS(=O)(=O)c3ccccc3)n2n1)Nc1ccccc1C(F)(F)F -8.03%
CC1=C(C(=O)Nc2ccccc2)C(c2cccs2)n2nc(SCc3ccccc3)nc2N1 (stereo not given) 14.6%
O=C(Nc1c2c(nn1-c1ccc(Cl)cc1)CS(=O)(=O)C2)c1cccc(Cl)c1 8.89%
COc1ccc(OC)c(NC(=O)c2cc3cc4ccc(C)cc4nc3s2)c1 -6.88%
Cc1ccc(CNC(=O)Cn2ccn(-c3cc(C)cc(C)c3)c(=O)c2=O)cc1 -12.2%
COc1ccccc1NC(=O)Cn1nc(C)n2cccc2c1=O -9.62%
O=C(c1ccc(F)cc1)n1nc(-c2ccc(Cl)cc2)nc1NCc1ccco1 -2.5%
CCOc1ccc(-c2cc(NC(=O)Nc3ccccc3C(F)(F)F)c(C(=O)OC)s2)cc1 -3.25%
COC(=O)c1ccc(Cn2c(SCC(=O)Nc3ccc(F)cc3)nc3ccccc32)cc1 15.5%
Cc1ccc(N2CC(C(=O)NCc3nnnn3-c3ccc(C)c(C)c3)CC2=O)cc1 (stereo not given) -7.49%
CCOc1ccc(NC(=O)Cn2c(=O)n(Cc3ccc(C(=O)NCc4ccc5c(c4)OCO5)cc3)c(=O)c3ccccc32)cc1 -0.21%
CCCCN(CC)Cc1ccc(CNS(=O)(=O)c2cc3c(cc2Cl)NC(=O)CO3)o1 -9.81%
O=c1cc(N2CCOCC2)oc2c(-c3ccccc3)cccc12 -13.8%
CCCCOc1ccc(C(=O)Nc2ccc3c(c2)CCCN3S(=O)(=O)c2ccc(C)cc2)cc1 -1.37%
Cc1ccc(-c2nc3c4cnn(-c5cc(Cl)ccc5Cl)c4ncn3n2)cc1 -7.58%
Cc1ccc(CCNC(=O)CCSCc2ccc(Cl)cc2)cc1 -24.2%
COCCCn1c(=N)c(C(=O)NC2CCCC2)cc2c(=O)n3ccccc3nc21 -12.1%
CCN(CC)CCNC(=O)c1cc(Br)c(N)cc1OC -1.58%
Cc1ccc(S(=O)(=O)c2nnn3c2nc(Nc2ccc(C(C)C)cc2)c2sccc23)cc1C -8.3%
CCOc1ccc(-n2c(SCc3nc(-c4ccccc4C)no3)nnc2-c2ccccc2)cc1 0.367%
CC(C)Cc1nn2c(=O)cc(COC(=O)c3ccccc3NC(=O)c3ccccc3)nc2s1 -7.54%
CC(=O)Nc1ccc(NC(=O)CN2C(=O)CN(C)C(=O)c3ccccc32)cc1 -12.7%
CCCn1c(=O)c2sccc2n2c(CCCC(=O)NCCOC)nnc12 -8.1%
